The list shows a part of the results. No stated cut-off is given here; in the data, active = 25% or less and inactive = the rest. Many values rest on one well or one pass, so single values are uncertain.
How the values were obtained:
[1] = test system: Salmonella enterica serovar Typhimurium SL1344; test: bacterial growth OD600 after 18 h in MHB with 0.5 µg/mL polymyxin B; higher = more bacterial growth (less inhibition); conditions: 25 µM; polymyxin B 0.5 µg/mL; system: broth
Protocol: (§1)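 Secondary screen of the 553 primary hits at 25 µM. (i) S. Typhimurium SL1344 grown in Mueller-Hinton broth with 0.5 µg/mL polymyxin B, OD600 read after 18 h. (ii) SAFIRE assay: RAW 264.7 macrophages infected with S. Typhimurium sifB::gfp (MOI 30); compound added 2 h post-infection; cells fixed at 18 h; GFP-positive pixel fraction per macrophage imaged by confocal microscopy and expressed as % of DMSO control.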

[2] = test system: Salmonella enterica serovar Typhimurium SL1344; test: intramacrophage bacterial GFP load (SAFIRE), percent of DMSO control (% of DMSO); higher = more intracellular bacteria (less inhibition); conditions: 25 µM; system: infected RAW 264.7 macrophages
Protocol: as §1
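Wherever bacterial growth OD600 after 18 h in MHB with 0.5 µg/mL polymyxin B is given: polymyxin B level opens the outer membrane while sparing the inner membrane, with novobiocin wells as reference growth inhibitor.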
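Wherever intramacrophage bacterial GFP load (SAFIRE), percent of DMSO control is given: compounds tested were the hits of an earlier 50 µM broth growth screen of a drug-like diversity library run with polymyxin B.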

SMILES	bacterial growth OD600 [1]	intramacrophage bacterial GFP load [2]
Cc1cc(C(=O)N(Cc2ccncc2)Cc2cccc(OCCc3ccc(F)cc3)c2)n(C)n1	0.004	inactive: 53.2
OC(CCc1ccccc1)c1ccc2c(c1)CN(Cc1cccc3c1OCO3)CCO2 (stereo unspecified)	-0.005	inactive: 58.1
COCCN1C(=O)CC(CC(=O)N(Cc2ccccc2)CC2CC2)(c2ccccc2OC)C1=O (stereo unspecified)	0.002	inactive: 96.6
Cc1cc(C)n2nc(C(=O)N(Cc3ccncc3)Cc3cccc(OCCc4ccc(F)cc4)c3)cc2n1	-0.003	inactive: 103
O=C(Nc1cnn(-c2ccc(C(=O)N3CCN(c4ccccc4Cl)CC3)cc2)c1)C1CCOCC1	0.244	inactive: 99.1
COc1ccc(-c2nn(-c3ccccc3C)cc2CN(CC2CCC(=O)N2)C(C)C)cc1F (stereo unspecified)	0.008	active: 21.1
O=C(Nc1ccc(Oc2cccnc2)cc1)C1CCN(Cc2cccc(Cl)c2)CC1	0.118	active: 1.67
O=C(Nc1cccc(-c2ccc(F)cc2)c1)C1CCCN(C(=O)c2ccoc2)C1 (stereo unspecified)	0.003	inactive: 108
CCOC(=O)C1(C/C=C/c2ccccc2)CCCN(Cc2nccs2)C1 (stereo unspecified)	0.063	inactive: 28.2
O=S(=O)(CC1CC1)c1ncc(CN2CCSCC2)n1CC1CCCCC1	0.001	inactive: 44.7
CCC(C)C(=O)N1CCc2ccc(NC(=O)CCc3ccc(C)cc3)cc2C1 (stereo unspecified)	0.155	inactive: 178
CN1Cc2ccccc2CC1C(=O)N(Cc1ccncc1)Cc1cccc(OCCc2ccc(F)cc2)c1 (stereo unspecified)	-0.005	active: 21.7
COc1cccc(OC)c1-c1cnnc(NCCC2=CCCCC2)n1	0.001	inactive: 55.3

Reference: the supplement of paper PMC12889115
